In test [1] the target is GST-MIZ-1 383–803 (human) (UniProt Q13105). Briefly: pull-down; GST or GST fusion on glutathione-Sepharose 4B beads incubated with 35S-labeled in vitro translated protein; 10 mM Tris-HCl pH 8, 250 mM NaCl, 0.1% NP40, 2 mg/ml BSA, 4 h at 4°C; autoradiography; only the target purified.
For test [2], the target named is EBNA3B, full-length, expressed in HEK293T cells (Epstein–Barr virus) (UniProt P03203). Put plainly: co-IP; HEK293T cells transfected with expression plasmids for full-length proteins; IP buffer 50 mM Tris-HCl pH 7.5, 150–300 mM NaCl, 1 mM DTT, 0.5% Nonidet P-40; which partner was precipitated is not told.
For test [3], the target named is EBNA3C, full-length, expressed in HEK293T cells (Epstein–Barr virus) (UniProt P03204). The description is as above.
For test [4], the target named is T1, EBNA3A, full-length, expressed in HEK293T cells (Epstein–Barr virus) (UniProt P12977).
T1 sequence: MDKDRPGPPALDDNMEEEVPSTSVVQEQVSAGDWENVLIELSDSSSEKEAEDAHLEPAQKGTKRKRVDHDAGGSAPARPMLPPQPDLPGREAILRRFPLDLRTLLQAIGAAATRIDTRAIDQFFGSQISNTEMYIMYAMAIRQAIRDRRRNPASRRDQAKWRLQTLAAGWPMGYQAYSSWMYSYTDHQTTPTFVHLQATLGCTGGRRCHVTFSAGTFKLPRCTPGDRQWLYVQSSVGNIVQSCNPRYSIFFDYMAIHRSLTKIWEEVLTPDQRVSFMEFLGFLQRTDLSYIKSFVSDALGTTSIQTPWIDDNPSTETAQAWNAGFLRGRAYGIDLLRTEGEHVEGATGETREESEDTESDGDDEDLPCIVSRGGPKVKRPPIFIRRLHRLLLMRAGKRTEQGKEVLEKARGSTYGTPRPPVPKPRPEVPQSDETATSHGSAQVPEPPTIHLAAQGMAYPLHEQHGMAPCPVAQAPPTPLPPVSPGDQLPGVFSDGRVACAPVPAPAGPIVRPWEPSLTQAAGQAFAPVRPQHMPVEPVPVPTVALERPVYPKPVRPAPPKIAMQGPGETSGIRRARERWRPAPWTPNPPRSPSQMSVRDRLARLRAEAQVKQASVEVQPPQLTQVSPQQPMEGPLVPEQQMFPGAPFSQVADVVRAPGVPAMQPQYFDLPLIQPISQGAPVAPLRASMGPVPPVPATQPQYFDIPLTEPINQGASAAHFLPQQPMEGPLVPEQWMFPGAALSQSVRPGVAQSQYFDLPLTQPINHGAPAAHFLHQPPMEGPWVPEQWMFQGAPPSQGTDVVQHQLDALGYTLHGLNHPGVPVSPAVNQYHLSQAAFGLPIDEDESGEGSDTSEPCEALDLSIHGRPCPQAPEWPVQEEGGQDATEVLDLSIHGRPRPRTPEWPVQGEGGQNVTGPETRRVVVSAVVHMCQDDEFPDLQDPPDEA
Described as above.

These are yes or no findings as the source states them, for the method shown. In cells and extracts the contact can be indirect. Some results given as binding are weak or reduced against the parent protein; the word gives no strength.

Consider “35S-labeled EBNA3B, in vitro translated (from UniProt P03203 1-938)”, for which, in test [1], the binding entry is on record as “binds”.

For “35S-labeled EBNA3C, in vitro translated (from UniProt P03204 1-992)”, the binding entry in test [1] is listed as “binds”.

In the case of “EBNA3A 1–172 (deletion mutant) (from UniProt P12977 1-172) (domain or fragment)”, in test [1], the binding result was “no binding”.

B1: SNAP-associated protein, full-length, expressed in HEK293T cells (protein, UniProt O95295 1-136)
chain: MAGAGSAAVSGAGTPVAGPTGRDLFAEGLLEFLRPAVQQLDSHVHAVRESQVELREQIDNLATELCRINEDQKVALDLDPYVKKLLNARRRVVLVNNILQNAQERLRRLNHSVAKETARRRAMLDSGIYPPGSPGK
With B1, the binding result in test [2], in test [3] and in test [4] was “binds” each time.

B2: Protein phosphatase 5, catalytic subunit, full-length, expressed in HEK293T cells (protein, UniProt P53041 1-499)
chain: MAMAEGERTECAEPPRDEPPADGALKRAEELKTQANDYFKAKDYENAIKFYSQAIELNPSNAIYYGNRSLAYLRTECYGYALGDATRAIELDKKYIKGYYRRAASNMALGKFRAALRDYETVVKVKPHDKDAKMKYQECNKIVKQKAFERAIAGDEHKRSVVDSLDIESMTIEDEYSGPKLEDGKVTISFMKELMQWYKDQKKLHRKCAYQILVQVKEVLSKLSTLVETTLKETEKITVCGDTHGQFYDLLNIFELNGLPSETNPYIFNGDFVDRGSFSVEVILTLFGFKLLYPDHFHLLRGNHETDNMNQIYGFEGEVKAKYTAQMYELFSEVFEWLPLAQCINGKVLIMHGGLFSEDGVTLDDIRKIERNRQPPDSGPMCDLLWSDPQPQNGRSISKRGVSCQFGPDVTKAFLEENNLDYIIRSHEVKAEGYEVAHGGRCVTVFSAPNYCDQMGNKASYIHLQGSDLRPQFHQFTAVPHPNVKPMAYANTLLQLGMM
B2: the binding entry in test [2], in test [3] and in test [4] was “binds” each time.

B3: Coiled-coil domain containing 80, full-length, expressed in HEK293T cells (protein, UniProt Q76M96 22-950)
chain: EPHPHATIRGSHGGRKVPLVSPDSSRPARFLRHTGRSRGIERSTLEEPNLQPLQRRRSVPVLRLARPTEPPARSDINGAAVRPEQRPAARGSPREMIRDEGSSARSRMLRFPSGSSSPNILASFAGKNRVWVISAPHASEGYYRLMMSLLKDDVYCELAERHIQQIVLFHQAGEEGGKVRRITSEGQILEQPLDPSLIPKLMSFLKLEKGKFGMVLLKKTLQVEERYPYPVRLEAMYEVIDQGPIRRIEKIRQKGFVQKCKASGVEGQVVAEGNDGGGGAGRPSLGSEKKKEDPRRAQVPPTRESRVKVLRKLAATAPALPQPPSTPRATTLPPAPATTVTRSTSRAVTVAARPMTTTAFPTTQRPWTPSPSHRPPTTTEVITARRPSVSENLYPPSRKDQHRERPQTTRRPSKATSLESFTNAPPTTISEPSTRAAGPGRFRDNRMDRREHGHRDPNVVPGPPKPAKEKPPKKKAQDKILSNEYEEKYDLSRPTASQLEDELQVGNVPLKKAKESKKHEKLEKPEKEKKKKMKNENADKLLKSEKQMKKSEKKSKQEKEKSKKKKGGKTEQDGYQKPTNKHFTQSPKKSVADLLGSFEGKRRLLLITAPKAENNMYVQQRDEYLESFCKMATRKISVITIFGPVNNSTMKIDHFQLDNEKPMRVVDDEDLVDQRLISELRKEYGMTYNDFFMVLTDVDLRVKQYYEVPITMKSVFDLIDTFQSRIKDMEKQKKEGIVCKEDKKQSLENFLSRFRWRRRLLVISAPNDEDWAYSQQLSALSGQACNFGLRHITILKLLGVGEEVGGVLELFPINGSSVVEREDVPAHLVKDIRNYFQVSPEYFSMLLVGKDGNVKSWYPSPMWSMVIVYDLIDSMQLRRQEMAIQQSLGMRCPEDEYAGYGYHSYHQGYQDGYQDDYRHHESYHHGYPY
With B3, the binding entry in test [2], in test [3] and in test [4] was “binds” throughout.

B4: Mediator complex subunit 25, full-length, expressed in HEK293T cells (protein, UniProt Q71SY5 1-747)
chain: MVPGSEGPARAGSVVADVVFVIEGTANLGPYFEGLRKHYLLPAIEYFNGGPPAETDFGGDYGGTQYSLVVFNTVDCAPESYVQCHAPTSSAYEFVTWLDGIKFMGGGGESCSLIAEGLSTALQLFDDFKKMREQIGQTHRVCLLICNSPPYLLPAVESTTYSGCTTENLVQQIGERGIHFSIVSPRKLPALRLLFEKAAPPALLEPLQPPTDVSQDPRHMVLVRGLVLPVGGGSAPGPLQSKQPVPLPPAAPSGATLSAAPQQPLPPVPPQYQVPGNLSAAQVAAQNAVEAAKNQKAGLGPRFSPITPLQQAAPGVGPPFSQAPAPQLPPGPPGAPKPPPASQPSLVSTVAPGSGLAPTAQPGAPSMAGTVAPGGVSGPSPAQLGAPALGGQQSVSNKLLAWSGVLEWQEKPKPASVDANTKLTRSLPCQVYVNHGENLKTEQWPQKLIMQLIPQQLLTTLGPLFRNSRMVQFHFTNKDLESLKGLYRIMGNGFAGCVHFPHTAPCEVRVLMLLYSSKKKIFMGLIPYDQSGFVNGIRQVITNHKQVQQQKLEQQQRGMGGQQAPPGLGPILEDQARPSQNLLQLRPPQPQPQGTVGASGATGQPQPQGTAQPPPGAPQGPPGAASGPPPPGPILRPQNPGANPQLRSLLLNPPPPQTGVPPPQASLHHLQPPGAPALLPPPHQGLGQPQLGPPLLHPPPAQSWPAQLPPRAPLPGQMLLSGGPRGPVPQPGLQPSVMEDDILMDLI
In the case of B4, the binding entry in test [2], in test [3] and in test [4] was “binds” each time.

B5: Importin 5, full-length, expressed in HEK293T cells (protein, UniProt O00410 1-1097)
chain: MAAAAAEQQQFYLLLGNLLSPDNVVRKQAEETYENIPGQSKITFLLQAIRNTTAAEEARQMAAVLLRRLLSSAFDEVYPALPSDVQTAIKSELLMIIQMETQSSMRKKVCDIAAELARNLIDEDGNNQWPEGLKFLFDSVSSQNVGLREAALHIFWNFPGIFGNQQQHYLDVIKRMLVQCMQDQEHPSIRTLSARATAAFILANEHNVALFKHFADLLPGFLQAVNDSCYQNDDSVLKSLVEIADTVPKYLRPHLEATLQLSLKLCGDTSLNNMQRQLALEVIVTLSETAAAMLRKHTNIVAQTIPQMLAMMVDLEEDEDWANADELEDDDFDSNAVAGESALDRMACGLGGKLVLPMIKEHIMQMLQNPDWKYRHAGLMALSAIGEGCHQQMEGILNEIVNFVLLFLQDPHPRVRYAACNAVGQMATDFAPGFQKKFHEKVIAALLQTMEDQGNQRVQAHAAAALINFTEDCPKSLLIPYLDNLVKHLHSIMVLKLQELIQKGTKLVLEQVVTSIASVADTAEEKFVPYYDLFMPSLKHIVENAVQKELRLLRGKTIECISLIGLAVGKEKFMQDASDVMQLLLKTQTDFNDMEDDDPQISYMISAWARMCKILGKEFQQYLPVVMGPLMKTASIKPEVALLDTQDMENMSDDDGWEFVNLGDQQSFGIKTAGLEEKSTACQMLVCYAKELKEGFVEYTEQVVKLMVPLLKFYFHDGVRVAAAESMPLLLECARVRGPEYLTQMWHFMCDALIKAIGTEPDSDVLSEIMHSFAKCIEVMGDGCLNNEHFEELGGILKAKLEEHFKNQELRQVKRQDEDYDEQVEESLQDEDDNDVYILTKVSDILHSIFSSYKEKVLPWFEQLLPLIVNLICPHRPWPDRQWGLCIFDDVIEHCSPASFKYAEYFLRPMLQYVCDNSPEVRQAAAYGLGVMAQYGGDNYRPFCTEALPLLVRVIQSADSKTKENVNATENCISAVGKIMKFKPDCVNVEEVLPHWLSWLPLHEDKEEAVQTFNYLCDLIESNHPIVLGPNNTNLPKIFSIIAEGEMHEAIKHEDPCAKRLANVVRQVQTSGGLWTECIAQLSPEQQAAIQELLNSA
In the case of B5, the binding result in test [2], in test [3] and in test [4] was “binds” each time.

The values above are taken from PMC4150796.
